Experimental data taken from PubChem BioAssay AID686978 (National Center for Advancing Translational Sciences (NCATS), 2013).
Out of some 420,000 compounds screened, about 64,000 (15%) were called active. Inconclusive means that the source gave no clear call. Such entries were picked first, then a sample of the others. The call rests on the fitted dose curve; in most records, active means well fitted inhibition curve with a large enough effect; inconclusive means small, poorly fitted or top-dose-only effect; inactive means flat fitted curve, though single readings scatter. No potency is given beside an inconclusive call; the fits are too rough.

Assay: qHTS for Inhibitors of human tyrosyl-DNA phosphodiesterase 1 (TDP1): qHTS in cells in absence of CPT; further: nearly all actives have a fitted effect of over 55% in size
Details: DT40 Tdp1-/- hTDP1 cells, no CPT, ATP luminescence, 48 h; activity change, negative = growth inhibition: at 46.2 µM (top of the series)
How it was run: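 No-CPT arm: Tdp1-/-;hTDP1 DT40 cells (400/well) plus compounds, incubated ≥48 hr at 37 °C. Readout CellTiter-Glo luminescence.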
On the % scale 0 is the no-effect control and ±100 the full control effect; potency means the concentration at half of the fitted maximal effect; tags describe the fitted curve by direction and shape.

SMILES | activity change, negative = growth inhibition | Potency
CCOc1ccc(/C=N/NC(=O)CCC(=O)Nc2ccc(F)cc2)cc1 | inconclusive: -37.1% [inhibitor] | 
COc1ccc(NC(=O)OCCn2c([N+](=O)[O-])cnc2C)cc1 |  | inactive
Cc1ccc(CN2CCSc3ccc(C(=O)NCc4ccco4)cc32)cc1 |  | inconclusive [inhibitor, single point]
O=C(O)c1ccccc1-n1cccc1C(=O)O |  | inactive
COc1ccc(CNc2ccnc(-c3cccc(NS(C)(=O)=O)c3)n2)c(OC)c1 |  | inconclusive [inhibitor, single point]
COC(=O)N1CCC2(CC1)CCN(c1ccccc1)CC2 |  | inconclusive [inhibitor, single point]
CCCCCCN(CCCCCC)C(=O)Cc1c(-c2ccc(Cl)cc2)[nH]c2ccc(Cl)cc12 |  | inconclusive [inhibitor, partial curve, poor fit]
COc1ccccc1/C=C/C=N/NC(=O)c1ccco1 |  | inconclusive [inhibitor, single point]
O=c1[nH]c2ccccc2nc1Cc1ccc([N+](=O)[O-])cc1 |  | inconclusive [inhibitor, single point]
Cc1[nH]c2ccccc2c1/C=C(\C#N)C(=O)NCc1ccccc1 |  | inconclusive [inhibitor, single point]
O=S1(=O)CCN2N=C(C34CC5CC(CC(C5)C3)C4)SC2=N1 |  | inconclusive [inhibitor, single point]
COc1ccc([N+](=O)[O-])cc1NC(=O)Nc1ccccc1 |  | inconclusive [inhibitor, single point]
O=C(CCNS(=O)(=O)c1ccccc1)N1CCN(c2ccccc2)CC1 |  | inactive
Cc1occc1C(=O)Nc1cccc(C(=O)NCc2ccccc2)c1 |  | inactive
C[C@H]1C(O)[C@@]23CCC4C5(C=[N+](CCO)C[C@]4(C)CCC5)C2C[C@@H]1C3 (some centres undefined) | inactive: -10.8% [at 9.04 µM] | 
O=C(NCc1ccccc1)c1cc(C2CCCCN2S(=O)(=O)c2cccc3cccnc23)on1 (centres undefined) |  | inactive
COc1cccc(NC(=O)Cn2c(=O)n(-c3ccc(Cl)cc3)c(=O)c3sc4ccccc4c32)c1 |  | inconclusive [inhibitor, partial curve]
CCOc1ccc(/C=C/c2nc3ccccc3n2S(=O)(=O)c2ccc(Br)cc2)cc1 |  | inconclusive [inhibitor, single point]
Cc1ccc(/C=N/Nc2nc(C)cc(C)n2)cc1 | inconclusive: -30.5% [inhibitor] | 
Cn1c(SCC(=O)Nc2ccc3nc(SCC(=O)NC4CC4)sc3c2)nnc1-c1ccccc1 |  | inconclusive [inhibitor, full curve]
CCOC(=O)C1CCN(Cc2cnc(Oc3ccc(Cl)cc3C)s2)CC1 |  | inactive
COc1cccc(C(O)c2nccn2Cc2ccccc2)c1OC (centres undefined) |  | inconclusive [inhibitor, single point]
CCCCN(C(=O)c1cc2ccccc2o1)c1c(N)n(CCCC)c(=O)[nH]c1=O |  | inactive

SMILES | activity change, negative = growth inhibition | Potency
Cc1ccccc1-c1cc(C(=O)NCc2ccc3c(c2)OCO3)nn1CC1CC(c2cccc([N+](=O)[O-])c2)=NO1 (centres undefined) |  | inconclusive [inhibitor, single point]
O=C(NC(=S)Nc1ccc(S(=O)(=O)N2CCOCC2)cc1)c1ccccc1[N+](=O)[O-] |  | inactive
CCOc1ccc(S(=O)(=O)Nc2ccc(O)c(Sc3ncn[nH]3)c2)cc1 |  | inconclusive [inhibitor, single point]
Cc1ccc(S(=O)(=O)N(C)c2ccc(C(=O)Nc3ccccc3C(=O)N3CCOCC3)cc2)cc1 |  | inconclusive [inhibitor, single point]
O=C(COc1cccc2c1CCNC2=O)Nc1ccc(Cl)cc1 |  | inconclusive [inhibitor, single point]
CN(Cc1ccccc1)C(=O)c1cc(-c2ccc(Br)cc2)on1 |  | inconclusive [inhibitor, partial curve]
Fc1ccc(-c2nnc(-n3nnc4ccccc43)c3ccccc23)cc1 |  | active: 11.6 µM
COc1cccc(CN2C(=O)CCC2(C)C(=O)NCCc2ccc(OC)c(OC)c2)c1 (centres undefined) |  | inactive
COc1ccc(C2C3=C(CC(C)(C)CC3=O)Nc3n[nH]c(C)c32)cc1 (centres undefined) |  | inconclusive [inhibitor, partial curve]
Cc1cccc(NC(=O)COC(=O)CN2C(=O)c3ccccc3C2=O)c1 |  | inactive
NCCCC[C@@H]1NC(=O)c2cc([N+](=O)[O-])cc(F)c2NCCCC[C@@H](C(N)=O)NC(=O)[C@H](CCC(N)=O)NC1=O |  | inactive
CC1=C(C(=O)OCC2CCCO2)C(c2ccc(C)o2)C2=C(CC(c3ccc(F)cc3)CC2=O)N1 (centres undefined) |  | inconclusive [inhibitor, single point]
O=C(Nc1ccc(OC(F)(F)F)cc1)c1ccc2nc[nH]c2c1 |  | inconclusive [inhibitor, single point]
CCN(CC)CC1CN(N=Cc2ccc([N+](=O)[O-])o2)C(=O)O1 (centres undefined) |  | active: 16.4 µM
COc1ccc(C(CNC(=O)Cc2cccs2)N(C)C)cc1 (centres undefined) |  | inactive
COc1cc(C2c3c(-c4ccccc4)n[nH]c3C(=O)N2c2ccccc2)ccc1O (centres undefined) |  | inconclusive [inhibitor, single point]
CCC(c1nnnn1-c1ccc2c(c1)OCCO2)N1CCN(C(=O)c2ccco2)CC1 (centres undefined) |  | inconclusive [inhibitor, single point]
O=C(CC1Sc2ccccc2NC1=O)NNc1ccc(Cl)cc1Cl (centres undefined) |  | inconclusive [inhibitor, single point]
COc1cc(/C=C(/C(=O)O)c2ccc(-c3ccccc3)cc2)cc(OC)c1OC |  | inconclusive [inhibitor, single point]
CCC(C)NC(=O)c1ccc2c(=O)n3c(nc2c1)CCCCC3 (centres undefined) |  | inactive
COc1cc(CNC(C)(C)CO)ccc1OCC(=O)NC(C)(C)C |  | inactive
CCCC(NC(=O)c1c(C)noc1C)C12CC3CC(CC(C3)C1)C2 (centres undefined) |  | inactive
Cc1ccc2nc(SCC(=O)N3CC(C)OC(C)C3)nc(=O)n2c1 (centres undefined) |  | inconclusive [inhibitor, single point]

SMILES | activity change, negative = growth inhibition | Potency
CC(C)c1nnc(NC(=O)CCC(=O)N2CCN(c3ccccc3F)CC2)s1 |  | inactive
COc1ccc(NC(=O)C2(C)Cc3c(-c4cccc(NC(C)=O)c4)ccnc3O2)cc1OC (centres undefined) |  | inconclusive [inhibitor, single point]
CC1CN(C(=O)c2cc3cc([N+](=O)[O-])ccc3s2)CC(C)O1 (centres undefined) |  | inactive
Cc1ccc(S(=O)(=O)N2CCC(C(=O)N3CCN(c4ccccn4)CC3)CC2)cc1C |  | inconclusive [inhibitor, single point]
N#Cc1c(N)c2ccccn2c1C(=O)c1ccc(Br)cc1 |  | inconclusive [inhibitor, single point]
CCC(CC)c1nn2c(=O)cc(COc3ccc(NC(=O)c4cccc(Cl)c4)cc3)nc2s1 |  | inactive
COc1ccc(C)cc1NS(=O)(=O)c1ccc2c(c1)n(C)c(=O)n2C |  | inconclusive [inhibitor, single point]
Cc1ccc(S(=O)(=O)NCC(=O)N(c2ccccc2)C(C(=O)NCc2ccccc2)c2ccco2)cc1 (centres undefined) |  | active: 18.4 µM
O=C(/C=C/NNC(=O)c1ccccc1O)c1ccccc1 |  | active: 16.4 µM
O=C(Nc1nnc([C@@H]2C[C@H](O)[C@@H](CO)O2)s1)Nc1ccccc1Oc1ccccc1 |  | inconclusive [inhibitor, partial curve]
O=C(c1cc(C(F)(F)F)cc(C(F)(F)F)c1)N1CCC[C@@]2(CCN(c3ccncc3)C2)C1 |  | inconclusive [inhibitor, single point]
CCCc1nc2ccc(C(=O)OC)cn2c1Cc1ccccc1 |  | active: 29.1 µM
COC(=O)c1ccc(Cl)cc1NC(=O)N(Cc1ccc(C)o1)C1CCN(C(C)=O)CC1 |  | active: 14.6 µM
COc1ccc(/C=N/NC(=O)c2ccc(NC(=O)c3cccc([N+](=O)[O-])c3)cc2)c(OC)c1 |  | inconclusive [inhibitor, partial curve]
COCOCCn1cc(CN2CCS(=O)(=O)N(Cc3ccc(-c4ccc(OC)cc4)cc3)C(C(C)C)C2=O)nn1 (centres undefined) |  | active: 16.4 µM
CCn1c(=O)c(=O)n(CC)c2cc(N3CCCCC3)c(NC(=O)c3cccc(F)c3)cc21 |  | inconclusive [inhibitor, single point]
CC(Oc1nc2c(c(=O)n(C)c(=O)n2C)n1C)C1CCCCC1 (centres undefined) |  | active: 16.4 µM
COc1cc2c(cc1OC)C(CNC(=O)C=Cc1cc(OC)c(OC)c(OC)c1)C2 (centres undefined) |  | active: 18.4 µM
CCC(C)Sc1ccc([C@H]2N[C@@](C)(C(=O)OC)[C@H]3C(=O)N(C)C(=O)[C@@H]23)cc1OC (some centres undefined) |  | inconclusive [inhibitor, single point]
Nc1nccnc1C(=O)OCC(=O)C12CC3CC(CC(C3)C1)C2 |  | inconclusive [inhibitor, single point]
COc1ccc(C(=O)COC(=O)c2c(-c3ccccc3)noc2C)c(OC)c1 |  | inconclusive [inhibitor, single point]
COc1ccccc1NC(=O)Nc1ccc(NC(=O)c2ccccc2O)cc1 |  | active: 29.1 µM
COc1ccc(/C=N/Nc2ncnc3scc(-c4ccccc4)c23)cc1OC |  | inconclusive [inhibitor, single point]
